Molecules are shown by their SMILES. Hit rate of the full screen: of about 50,000 compounds, about 800 (1.6%) showed an effect of 50% or more. Some of the results follow.

Data on 31 compounds can be found in PubChem BioAssay AID1240 (Sanford-Burnham Center for Chemical Genomics, 2008).

This assay has as its target Bcl-2-like protein 10 (Homo sapiens) (UniProt Q9HD36). The assay is described as follows: Phenotype converters, Bcl-B/TR3 peptide binding displacement, primary biochemical FP (AID 1240).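 Also: 0% = Bcl-B with tracer peptide and DMSO and 100% = tracer peptide lacking Bcl-B.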 Particulars: GST-Bcl-B / FITC-TR3 peptide fluorescence polarization; stronger effect = higher value; compound at 3.75 mg/L. (Polarisation of emitted light reports the rotation of a fluorescent probe.)
Sequence of UniProt Q9HD36 (Q9HD36 whole entry, looked up): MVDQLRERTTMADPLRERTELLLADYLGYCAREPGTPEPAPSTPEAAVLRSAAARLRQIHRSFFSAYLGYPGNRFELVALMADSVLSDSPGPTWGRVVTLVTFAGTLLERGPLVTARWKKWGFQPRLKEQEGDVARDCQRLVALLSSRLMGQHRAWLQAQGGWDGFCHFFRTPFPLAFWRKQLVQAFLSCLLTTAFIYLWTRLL
With `CCOC(=O)c1c(NC(=S)Nc2ccccc2)sc2c1CC(C)(CC)OC2` (stereo unspecified), the displacement was -4.9%.

With `COc1ccccc1-n1sc2c(c1=S)-c1ccc(C)cc1NC2(C)C`, the displacement turned out to be 1.1%.

With `CC1=C(C(=O)OC(C)C)C(c2cccc(Cl)c2)C2=C(CCCC2=O)N1` (stereo unspecified), the displacement is 3.2%.

For the compound `O=C(Cc1ccc(F)cc1)Nc1ccccc1Br`, the displacement was 13.2%.

Consider `CCOc1ccccc1N(CC(=O)Nc1ccccc1CC)S(=O)(=O)c1ccccc1`, for which the displacement was -5.8%.

Regarding `O=c1c2c(Br)c3c(=O)n(CCO)c(=O)c3c(Br)c2c(=O)n1CCO`, the displacement stood at 35.2%.

With `CCOC(=O)c1c(NC(=S)NC(=O)Cc2ccccc2)sc(C)c1C`, the displacement was 0.1%.

As for `Cc1ccccc1-c1noc(-c2ccc(C(C)(C)C)cc2)n1`, the displacement is -6.5%.

As to `COc1ccc(S(=O)(=O)NC2CCCCCC2)cc1`, the displacement was -5.3%.

For the compound `COc1cccc(NC2=C(Cl)C(=O)N(c3cccc(C)c3)C2=O)c1`, the displacement turned out to be 0.6%.

With `Cc1nc(-c2ccc([N+](=O)[O-])cc2)nc2[nH]ccc(=O)c12`, the displacement is -17.2%.

In the case of `Cc1ccc(C(=O)NCc2ccccc2)cc1S(=O)(=O)N1CCCCC1`, the displacement was -16.8%.

In the case of `CCCc1c(C)nc2ccc(C(=O)O)cc2c1SCC(=O)O`, the displacement was -2.3%.

Consider `Cc1nc2cc(Nc3nnc(-c4ccc(Cl)cc4)c4ccccc34)ccc2n1C`, for which the displacement was found to be 10.8%.

Consider `NC(=O)c1cccc(N=Cc2ccc(Br)s2)c1`, for which the displacement was -9.1%.

As for `COc1ccc(/C=C2\SC(=S)N(c3ccc(C)cc3C)C2=O)cc1OC`, the displacement was 6.6%.

As to `CC(C)CN1C(=O)c2ccc(C(=O)Nc3cc(Cl)ccc3C(=O)O)cc2C1=O`, the displacement worked out at 6.8%.

On to `Cc1ccccc1OCCSc1ncnc2nc[nH]c12`, for which the displacement worked out at 0.5%.

Consider `COc1cc(Br)c(Br)c(/C=N\NC(=O)c2ccccc2Cl)c1O`, for which the displacement was determined as 5.8%.

With `O=C(O)c1ccc(N/N=C/c2ccc3c(c2)OCO3)cc1`, the displacement was -9.2%.

For the compound `O=C(O)CN=Cc1c(O)[nH]c2ccccc12`, the displacement stood at 2%.

`COc1cc(C2Nc3ccccc3NC3=C2C(=O)CC(c2ccc(Cl)cc2)C3)cc(OC)c1OC` (stereo unspecified): the displacement was -3.4%.

Regarding `COc1ccccc1CNC(=O)COc1ccc(C)cc1C`, the displacement is -2.3%.

Consider `COc1cc(CN2CCN(C(=O)c3cccs3)CC2)cc(OC)c1OC`, for which the displacement is -18.6%.

On to `CCc1ccc(NC(=S)NC(=O)c2ccc(Cl)cc2)cc1`, for which the displacement was determined as 2.1%.

For `Cc1ccc(-c2nc3cc(Cl)cc(Cl)c3o2)cc1NC(=O)c1ccc(Br)o1`, the displacement is -7.6%.

`Cc1onc(-c2c(Cl)cccc2Cl)c1C(=O)NC1CCCCCCC1`: the displacement is -9.1%.

Consider `CC(C)=CC(=O)CC(O)(c1ccccc1)C(F)(F)F` (stereo unspecified), for which the displacement was -6.1%.

`O=C(N/N=C\c1ccc[nH]1)c1cccc2c3c([nH]c12)CCCC3`: the displacement was 9.4%.

Regarding `O=C1c2ccc(Oc3ccc4c(c3)C(=O)N(Cc3cccnc3)C4=O)cc2C(=O)N1Cc1cccnc1`, the displacement was -7%.

Take `Cc1ccc(OCC(=O)NCc2cccnc2)c(C)c1`: the displacement was -0.3%.
